Like-named read-outs stand apart in the source and are kept apart here.

Experiment [1] concerns human umbilical vein endothelial cells (HUVECs). Put plainly: In vitro antiproliferative activity against HUVECs.
A further experiment relates to HCT116 line. Put plainly: Antiproliferative activity in combination with other agents (methylene blue staining). The note with it: Compound A alone.
Experiment [2] deals with CA20948 rat pancreatic tumors. Put plainly: Activity in CA20948 rat pancreatic tumors. The experiment is classed as in vivo, male Lewis rats. How it is done:
(§1) • Fragments of A549 tumors (approx. 25 mg; derived from Cell line CCL 185, ATCC, Rockville Md., USA) are transplanted subcutaneously into the left flank of BALB/c nude mice. Treatment is started on day 7 or day 12 following tumor transplantation. The compound to be tested is administered p.o. once per day from day 7/12 to day 38/55, respectively. […] B.2 Activity in KB-31 Human Epidermoid Tumor Xenografts • Fragments of KB-31 tumors (approx. 25 mg; derived from the cell lines obtained from Roswell Park Memorial Institute Buffalo, N.Y., USA) are transplanted subcutaneously into the left flank of BALB/c nude mice. Treatment is started on day 7 or on day 10 following tumor transplantation. The compound to be tested is administered p.o. once per day from day 7/10 to day 25/35, respectively. […] B.3 Activity in CA20948 Rat Pancreatic Tumors • Tumors are established in male Lewis rats by subcutaneous injection of CA20948 tumor cell suspension derived from donor rats into the left flank. Treatment is started on day 4 post inoculation. The compound to be tested is administered p.o. once per day (6 days a week) from day 4 to day 9-15 post inoculation. Antitumor activity is expressed as TIC % as indicated above.

In experiment [3] the test system is normal human dermal fibroblast (NHDF). Description: bFGF-stimulated NHDF proliferation. To be noted: same concentration range as HUVEC assay.
Another experiment relates to KB-31 line. Description: Antiproliferative activity in combination with other agents (methylene blue staining). To be noted: Compound A alone.
Experiment [4] has as its system KB-31 human epidermoid tumor xenografts. Put plainly: Activity in KB-31 human epidermoid tumor xenografts. The experiment is classed as in vivo, BALB/c nude mice. The note with it: 2.5 mg/kg/day p.o. How it is done:
as §1
In general terms: In xenograft studies the graft and the host belong to different species.

In experiment [5] the test system is A549 human lung tumor xenografts. Description: Activity in A549 human lung tumor xenografts. Format: in vivo, BALB/c nude mice. Here is the method:
as §1

For the compound `CO[C@H]1C[C@@H]2CC[C@@H](C)[C@@](O)(O2)C(=O)C(=O)N2CCCC[C@H]2C(=O)O[C@H]([C@H](C)C[C@@H]2CC[C@@H](OCCO)[C@H](OC)C2)CC(=O)[C@H](C)/C=C(\C)[C@@H](O)[C@@H](OC)C(=O)[C@H](C)C[C@H](C)/C=C/C=C/C=C/1C` [Compound A, 40-O-(2-hydroxyethyl)-rapamycin], the IC50 is over 10 nM in experiment [1] (read-out: IC50, FBS-stimulated proliferation, FBS-stimulated); 0.12 ± 0.022 nM in experiment [1] (read-out: IC50, VEGF-stimulated proliferation, VEGF-stimulated); 0.841 ± 0.396 nM in experiment [1] (read-out: IC50, bFGF-stimulated proliferation, bFGF-stimulated); “μM range” in the experiment with HCT116 line; “μM range” in the experiment on KB-31 line. In addition, the “final T/C” value is recorded as 23% in experiment [2] (2.5 mg/kg p.o. daily (6 days a week)); 32% in experiment [2] (intermittent, 5 mg/kg twice per week); 25% in experiment [4]; 43% in experiment [5] (0.1 mg/kg p.o. once per day); 16% in experiment [5] (0.5 mg/kg p.o. once per day). Besides, the “effect on bFGF-stimulated NHDF proliferation” value in experiment [3] was “no significant effects”. Further, in experiment [5] (0.5 mg/kg p.o. once per day, on day 17), the “% regressions (transient)” value is given as 38%. Besides, in experiment [5] (2.5 mg/kg p.o. once per day), the “% regressions (persisting)” value was 41%.
